Assay results: the supplement of paper PMC10441789
The other results are listed elsewhere or left out. Antibody binding of pooled human sera (four to six donors per pool; dilution not stated) to peptides of the Trypanosoma cruzi antigen TSSA on microarrays. Quantile-normalised fluorescence in arbitrary units, mean of duplicate arrays; higher = more binding. No active / inactive call. The uninfected pools are read here as the healthy donors of the same country. The strongest signals lie near the top of the scale (about 60,000).

Each sequence was assayed on pooled sera of uninfected people, Colombia (assay: antibody binding signal (normalised fluorescence) (arbitrary fluorescence units); higher = stronger serum antibody binding to peptide).
Method: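 Microarray of 15-residue peptides over residues 30-55 of Trypanosoma cruzi TSSAII, each with 1 to 10 substitutions at naturally variable positions, probed with one serum pool per country.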

| Sequence | antibody binding signal |
| --- | --- |
| TSSTPPSGKEKKAAA | 252 |
| PSGKDNKAATGGTPS | 113 |
| SGKDKKPATGETPSQ | 808 |
| PPSGTDKKPAAGGAP | 587 |
| KENKPATGGAPSPSG | 110 |
| KPATGGTPSQSGASS | 174 |
| TENKPATGGTPSPPG | 339 |
| SGKEKKAAAGETPSQ | 264 |
| KDNKPAAGETPSQPG | 436 |
| SGTENKTAAGGAPSP | 393 |
| TSSTPPSGTEKKPAT | 184 |
| EKKTATGETPSPSGA | 126 |
| SGKEKKPATGGAPSQ | 127 |
| PPSGKDKKAAAGEAP | 350 |
| PPSGKDKKTAAGGAP | 270 |
| SGKDNKTATGETPSQ | 312 |
| SGTDKKAATGEAPSP | 614 |
| DKKTAAGETPSQSGA | 482 |
| TISTPPSGTEKKAAT | 217 |
| KDKKPAAGETPSPSG | 81.4 |

| Sequence | antibody binding signal |
| --- | --- |
| ENKPAAGGTPSQSGA | 414 |
| KDNKAAAGEAPSQSG | 230 |
| DKKAAAGETPSQPGA | 581 |
| GTENKPAAGEAPSQP | 124 |
| KDNKTAAGEAPSPPG | 240 |
| EKKPAAGEAPSPSGA | 86.3 |
| DNKTATGGAPSQSGA | 214 |
| SGKDNKTATGGTPSP | 507 |
| DKKAAAGEAPSQPGA | 146 |
| KENKTATGGTPSPSG | 161 |
| GKEKKTATGGTPSQP | 116 |
| TPPSGKEKKAATGGT | 291 |
| KEKKAAAGGAPSQPG | 83 |
| EKKPATGEAPSPPGA | 260 |
| PSGTDNKPATGGAPS | 469 |
| GKDKKPATGETPSPP | 140 |
| TENKTAAGEAPSPPG | 180 |
| DNKAAAGGTPSQSGA | 391 |
| GKEKKPATGEAPSQP | 266 |
| DNKTATGGTPSQPGA | 579 |
